Whole data set: some 81,000 sequences, median “one-hybrid fitness for binding NBS DNA” near -0.1, cut for the highest 2% near 0.36. The list shows a part of the results.
B1: Caulobacter ParB omega fusion; a variant is named by its letters at X, in order, B8GW30 (parent)
chain: MESVVVGEPGMSEGRRGLGRGLSALLGEVDAAPAQAPGEQLGGSREAPIEILQRNPDQPRRTFREEDLEDLSNSIREKGVLQPILVRPSPDTAGEYQIVAGERAWRAAQRAGLKTVPIMVRELDDLAVLEIGIIENVQRADLNVLEEALSYKVLMEKFERTQENIAQTIGKSXSHVANXMRLLXLPDEVQSYLVSGELTAXHARAIAAAADPVALAKQIIEGGLSVRETEALARKAPNLSAGKSKGGRPPRVKDTDTQALESDLSSVLGLDVSIDHRGSTGTLTITYATLEQLDDLCNRLTRGI

Variants of: B1
Experiment: one-hybrid fitness for binding NBS DNA (the Noc-binding site; scaled: cognate 1, non-cognate 0); higher = stronger binding
Settings: with NBS DNA site
Method in brief: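 Bacterial one-hybrid selection in E. coli USO rpoZ- hisB- pyrF- with a HIS3 reporter carrying the site 19 bp from the promoter, screening Caulobacter ParB libraries with four specificity codons randomised (NNS). Cells grew 48 hours at 37°C on M9-minus-histidine plus 0.1 mM IPTG and 5 mM 3-AT. Plasmids before and after selection were Illumina-sequenced, three replicate libraries pooled, and variants under 10 reads dropped. Fitness is the log change in variant-to-wild-type read ratio, rescaled to cognate 1, non-cognate 0.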

Variant | one-hybrid fitness for binding NBS DNA
RMQN | ≤ 0.2
ARLP | ≤ 0.2
DDWG | ≤ 0.2
AHKW | ≤ 0.2
MRTK | ≤ 0.2
QVLG | ≤ 0.2
GTGY | ≤ 0.2
AVSC | ≤ 0.2
AGRV | ≤ 0.2
PITQ | ≤ 0.2
PLEK | ≤ 0.2
LIVF | ≤ 0.2
WTNY | ≤ 0.2
LYLA | ≤ 0.2
DNYG | ≤ 0.2
QHWL | ≤ 0.2
LMVF | ≤ 0.2
QGVR | ≤ 0.2
LVYW | ≤ 0.2
SCAC | ≤ 0.2
HENW | ≤ 0.2
GPIR | ≤ 0.2
LSLD | ≤ 0.2
QAYS | 0.305
WQHR | ≤ 0.2

Variant | one-hybrid fitness for binding NBS DNA
QREF | ≤ 0.2
YVPL | ≤ 0.2
LAAS | ≤ 0.2
GRRN | ≤ 0.2
TGEC | ≤ 0.2
HIYL | ≤ 0.2
HSWC | ≤ 0.2
QVHY | ≤ 0.2
LGVG | ≤ 0.2
RHFP | ≤ 0.2
TGIS | ≤ 0.2
TYDC | ≤ 0.2
SEFG | ≤ 0.2
VLWK | ≤ 0.2
TREL | ≤ 0.2
RTWS | 0.349
HRSP | ≤ 0.2
PERF | ≤ 0.2
YASR | ≤ 0.2
WTHR | ≤ 0.2
QTCT | 0.571
WVTT | ≤ 0.2
KCHS | ≤ 0.2
FHHK | ≤ 0.2
PFEV | ≤ 0.2

Variant | one-hybrid fitness for binding NBS DNA
HPFP | ≤ 0.2
IYAG | ≤ 0.2
PNRW | ≤ 0.2
TQHI | ≤ 0.2
PDSG | ≤ 0.2
RPRK | ≤ 0.2
CHCT | ≤ 0.2
TMLM | ≤ 0.2
ENQS | ≤ 0.2
LKTV | ≤ 0.2
AMEE | ≤ 0.2
GTCS | ≤ 0.2
DVQG | ≤ 0.2
TFVT | ≤ 0.2
TVNR | ≤ 0.2
FNCS | ≤ 0.2
QCHS | 0.502
PSSQ | ≤ 0.2
GTHW | ≤ 0.2
VHPW | ≤ 0.2
REVC | ≤ 0.2
RKQF | ≤ 0.2
YFYR | ≤ 0.2
LRQQ | ≤ 0.2
PPKN | ≤ 0.2

Variant | one-hybrid fitness for binding NBS DNA
LMDG | ≤ 0.2
ACSR | ≤ 0.2
SANT | ≤ 0.2
IHMT | ≤ 0.2
LWFG | ≤ 0.2
PHRN | ≤ 0.2
RWAL | ≤ 0.2
KLAE | ≤ 0.2
RWYS | ≤ 0.2
RVDE | ≤ 0.2
SNRS | ≤ 0.2
RIHN | ≤ 0.2
NTAY | ≤ 0.2
QNCT | ≤ 0.2
FGDR | ≤ 0.2
STGW | ≤ 0.2
HYLR | ≤ 0.2
VNNS | ≤ 0.2
LVVW | ≤ 0.2
SRIL | ≤ 0.2
QQMC | ≤ 0.2
SFNT | ≤ 0.2
VSVR | ≤ 0.2
